From paper PMC4336329 (PLoS ONE, 2015)
The whole screen tested about 310,000 compounds, of which about 2,200 (0.71%) showed an effect of 50% or more. Effects have a minus sign here. Some of the results follow.

biological target: human ether-à-go-go-related gene (hERG) potassium channel (human, UniProt Q12809); assay: primary screen, population patch clamp on CHO cells stably expressing hERG
Sequence (Q12809 whole entry, looked up): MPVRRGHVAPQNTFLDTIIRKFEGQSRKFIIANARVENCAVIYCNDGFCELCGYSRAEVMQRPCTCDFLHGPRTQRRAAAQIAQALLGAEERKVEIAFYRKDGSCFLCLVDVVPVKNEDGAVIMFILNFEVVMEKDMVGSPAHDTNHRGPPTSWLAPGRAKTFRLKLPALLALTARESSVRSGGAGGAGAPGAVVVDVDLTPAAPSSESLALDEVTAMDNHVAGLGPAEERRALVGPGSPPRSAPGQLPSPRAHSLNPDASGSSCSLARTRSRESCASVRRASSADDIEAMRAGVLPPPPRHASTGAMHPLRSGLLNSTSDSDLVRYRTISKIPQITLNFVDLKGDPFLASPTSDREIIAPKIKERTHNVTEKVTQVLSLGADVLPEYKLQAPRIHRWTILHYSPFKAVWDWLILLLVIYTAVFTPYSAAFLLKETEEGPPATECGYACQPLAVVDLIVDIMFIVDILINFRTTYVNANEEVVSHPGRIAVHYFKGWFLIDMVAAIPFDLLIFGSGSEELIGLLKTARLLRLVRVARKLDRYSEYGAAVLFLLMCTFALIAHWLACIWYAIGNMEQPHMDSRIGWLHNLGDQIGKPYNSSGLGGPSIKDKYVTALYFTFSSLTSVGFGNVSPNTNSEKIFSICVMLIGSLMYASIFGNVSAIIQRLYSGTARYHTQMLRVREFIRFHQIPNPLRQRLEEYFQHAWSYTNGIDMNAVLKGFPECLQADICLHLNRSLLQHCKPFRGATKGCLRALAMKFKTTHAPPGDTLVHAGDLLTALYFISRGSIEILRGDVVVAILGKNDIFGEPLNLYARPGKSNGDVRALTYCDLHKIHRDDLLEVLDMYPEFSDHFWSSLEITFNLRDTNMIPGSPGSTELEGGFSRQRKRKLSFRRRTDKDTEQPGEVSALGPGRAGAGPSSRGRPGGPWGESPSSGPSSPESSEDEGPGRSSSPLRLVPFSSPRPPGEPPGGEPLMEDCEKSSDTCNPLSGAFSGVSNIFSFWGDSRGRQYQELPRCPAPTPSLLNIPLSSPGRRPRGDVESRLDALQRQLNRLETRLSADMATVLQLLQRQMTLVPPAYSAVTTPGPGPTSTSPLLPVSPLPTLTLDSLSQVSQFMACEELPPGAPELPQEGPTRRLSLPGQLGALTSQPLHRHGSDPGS

Structure (SMILES) | hERG current change (%, negative = inhibition) at 1uM
Cc1ccccc1OCC(=O)N/N=C/c1ccccn1 | 14.6%
COc1cccc2sc(=NC(=O)CS(=O)(=O)c3ccc(Cl)cc3)n(C)c12 | -12.8%
COc1cccc(C2CC(c3ccc(Cl)cc3)n3nc(N)nc3N2)c1 (stereo not drawn) | 0.765%
CCCc1cc(=O)oc2cc(C)c(CN3CCCC3)c(O)c12 | 16.3%
Cc1nnc(SCC2=C(C(=O)[O-])N3C(=O)[C@@H](NC(=O)Cn4cnnn4)[C@H]3SC2)s1.[Na+] | 9.17%
CCOC(=O)c1cc2sc(C)cc2n1CC(=O)N1CCN(C(=O)c2ccco2)CC1 | 4.59%
O=C(O)[C@@H]1C[C@H]1[C@@H](NP(=O)(c1ccccc1)c1ccccc1)c1ccccc1 | 5.4%
COC(=O)C1CCN(C(=O)NC(C)(C)C)CC1 | 9.98%
CC(C)C(NC(=O)c1ccc(F)cc1)C(=O)OCC(=O)N1CC(=O)Nc2ccccc21 (stereo not drawn) | 3.46%
COc1ccc(Nc2nc(NC(C)(C)C)nc(N3CCCC3)n2)c(OC)c1 | 14.4%
O=C(Nc1cccc(C(=O)N2CCCC2)c1)c1ccccc1 | 7.23%
COc1ccc(NC(=S)N2CCC(N(C)CCN3CCOCC3)CC2)cc1 | 11.6%
COC(=O)C(Cc1c[nH]c2ccccc12)NC(=O)C(=O)c1c[nH]c2ccccc12 (stereo not drawn) | 8.23%
CCOC(=O)c1[nH]nc(C(=O)c2ccc(Br)cc2)c1O | 3.11%
O=C(NCCN1CCOCC1)c1cc(=O)[nH]c2ccc(Br)cc12 | 0.61%
Cc1cccc(N2CCN(C3=NC(=O)C(=C4CCCCC4)S3)CC2)c1 | 14.9%
Cc1ccc(-c2cc(C(=O)Nc3cccc(S(=O)(=O)N(C)C)c3)c3ccccc3n2)o1 | 15.2%
O=C(CN1C(=O)c2ccccc2C1=O)Nc1ccc(S(=O)(=O)N2CCOCC2)cc1 | 9.17%
CCN(CC)S(=O)(=O)c1cccc(C(=O)Nc2cc(C)on2)c1 | 9.74%
CC(C)(C)OC(=O)COc1cc(OCC(=O)OC(C)(C)C)c2c(=O)cc(-c3ccccc3)oc2c1 | 2.95%
COc1ccc(NC(=O)N2CCN(c3cccc(C(F)(F)F)c3)CC2)cc1 | 8.34%

Structure (SMILES) | hERG current change (%, negative = inhibition) at 1uM
Cc1cccc(NC(=O)C2CCCN2S(=O)(=O)c2ccc(Cl)cc2)n1 (stereo not drawn) | 2.36%
COC(=O)C1=C(N)Oc2cc(C)n(CC3CCCO3)c(=O)c2C1c1ccc(Cl)cc1 (stereo not drawn) | 13.4%
COCCN(CCOC)C(=O)c1ccc(NS(=O)(=O)c2ccc3c(c2)OCCO3)cc1 | 14.3%
COc1ccc(C(CNC(=O)CCNS(=O)(=O)c2ccc(C)cc2)N2CCOCC2)cc1 (stereo not drawn) | -12.5%
CCOc1cccc(-c2nn(-c3ccccc3)cc2/C=C(/C#N)C(=O)NCCCn2ccnc2)c1 | -1.55%
Cc1cc(C(=O)NNC(=O)Nc2ccccc2)no1 | 4.25%
Cc1ccc(S(=O)(=O)N(C)c2cc(S(=O)(=O)Nc3ccncc3)c(C)cc2C)cc1 | 9.62%
O=C(N/N=C/c1cccnc1)c1[nH]ncc1Br | 16.1%
O=C(NC(=S)N1C[C@H]2C[C@H](C1)c1cccc(=O)n1C2)c1ccc(Cl)cc1 | -4.09%
CC(=O)Nc1ccc(S(=O)(=O)NCc2ccc(C(=O)NC(C)c3ccccc3)cc2)cc1 (stereo not drawn) | 2.63%
Cc1ccc2[nH]c(=O)c(CC=C(Cl)Cl)c(C)c2c1 | 7.82%
CCC1C(=O)NCCN1C(=O)c1cc(COc2cc(C)ccc2C)on1 (stereo not drawn) | 11.7%
CCOC(=O)CSc1nnc(-c2cccnc2)n1Cc1ccccc1 | 6.53%
CCOc1ccc(-c2[nH]ncc2-c2ccc(Cl)cc2)c(O)c1 | 12%
Cc1c(C(=O)NCc2cccnc2)oc2ccc(S(=O)(=O)N3CCC4(CC3)OCCO4)cc12 | 10.7%
CCOc1ccc(-c2nc(N)ncc2Oc2cccc(OC)c2)c(O)c1 | 8.08%
CCN(C(=O)N(CC)c1ccccc1)c1ccccc1 | 12.2%
CCOP(=O)(c1ccccc1)C(O)c1ccc(F)cc1 (stereo not drawn) | 6.73%
Cc1ccc(/C=C(\C#N)C(=O)Nc2cccc(C)n2)cc1 | 11.5%
COc1ccc(-c2cc(C(=O)NC(Cc3c[nH]c4ccccc34)C(=O)O)c(C)o2)cc1OC (stereo not drawn) | 18.2%
COCCN(CCOC)S(=O)(=O)c1ccc(/C(O)=C(\C#N)c2nc3ccccc3[nH]2)cc1 | 3.63%
